Where “and” joins values, the source holds several entries; their conditions need not be identical. Equal values may be shown once.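 A five-concentration, 48-hour dose response in 96-well plates underlies each endpoint, interpolated linearly between surrounding concentrations. GI50 is the concentration that inhibits growth by half. TGI marks complete inhibition of growth.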 Numbered stars: 1 amine (or outer) side, 2 acyl side, 3 side chain; on linkers, the order of the positions; unused ones are H or OH. Bridge positions count the residues as written; N and C are the ends. Square brackets hold non-standard residues; d marks the D form. Peptide text beside a SMILES is read from it. I, II: the chains in the order shown. * marks the point of attachment. ξ: configuration not given here. X50 = N=C(N)NCCC[C@@H](NC(=N)CCCCCCC(=N)N[C@H](CCCNC(=N)N)C(=O)[*:2])C(=O)[*:1]; dIgl = N[C@@H](C(=O)O)C1Cc2ccccc2C1; Hyp = O=C(O)[C@@H]1C[C@@H](O)CN1; ξIgl = NC(C(=O)O)C1Cc2ccccc2C1; ξOic = O=C(O)C1CC2CCCCC2N1; ξR = N=C(N)NCCCC(N)C(=O)O; Boc = CC(C)(C)OC(=O)*; ξP = O=C(O)C1CCCN1; ξS = NC(CO)C(=O)O
What follows are molecules tested on NCI-H322M lung (assay: inhibition of tumour cell growth, NCI panel, 48 h).

Row | SMILES | TGI | GI50
1 | N/C=N/S(=O)(=O)c1ccc(NC(=O)COC(=O)c2cccc3c(=O)c4ccccc4[nH]c23)cc1 | > 100 µM | 
2 | N#CC(C#N)=CNCCN1CCN(C=C(C#N)C#N)CC1 | > 100 µM | 
3 | Nn1c(Nc2ccc(S(N)(=O)=O)cc2)nnc(/C=C/c2c(O)ccc3ccccc23)c1=O | 46.7 µM | 
4 | CCc1ccccc1NC(=O)C(C#N)C1=C(Cl)C(=O)c2ccccc2C1=O (stereo unspecified) | 32.7 µM | 
5 | O=C(COc1ccccc1Cl)N1N=C(c2ccccc2)CC1(O)c1ccccc1 (stereo unspecified) | 39.9 µM | 
6 | COC1/C=C/C=C(/C)Cc2cc(O)c(Cl)c(c2)N(C)C(=O)CC(OC(=O)C(C)C)C2(C)OC2C(C)C2CC1(O)NC(=O)O2 (stereo unspecified) | > 100 µM | 
7 | Oc1c(CN2CCCC2)ccc2cccnc12 | > 100 µM | 
8 | COc1cc2c3c(n(CCCN(CCCN(CCCn4c5c(c6ccccc6c4=O)C(=O)c4ccccc4-5)C(=O)OC(C)(C)C)C(=O)OC(C)(C)C)c(=O)c2cc1OC)-c1cc2c(cc1C3=O)OCO2 | 91.1 µM | 0.119 µM
9 | N=C(N)NCCCC(NC(=O)C1CC2CCCCC2N1C(=O)[C@H](NC(=O)C(CO)NC(=O)C(NC(=O)CNC(=O)[C@@H]1C[C@@H](O)CN1C(=O)C1CCCN1C(=O)C(CCCNC(=N)N)NC(=O)[C@@H](CCCNC(=N)N)NC(=N)CCCCCCC(=N)N[C@H](CCCNC(=N)N)C(=O)NC(CCCNC(=N)N)C(=O)N1CCCC1C(=O)N1C[C@H](O)C[C@H]1C(=O)NCC(=O)NC(C(=O)NC(CO)C(=O)N[C@@H](C(=O)N1C(C(=O)NC(CCCNC(=N)N)C(=O)O)CC2CCCCC21)C1Cc2ccccc2C1)C1Cc2ccccc2C1)C1Cc2ccccc2C1)C1Cc2ccccc2C1)C(=O)O (stereo partly specified) (I: [ξR][ξP][Hyp]G[ξIgl][ξS][dIgl][ξOic][ξR]-OH / II: [ξR][ξP][Hyp]G[ξIgl][ξS][dIgl][ξOic][ξR]-OH; linker I:N-II:N via X50) | 5.34 µM | 
10 | Cc1cc(Cl)nc2ccc(Cc3ccc4nc(Cl)cc(C)c4c3)cc12 | > 100 µM | 
11 | COc1ccc(-c2coc3cc(O)ccc3c2=O)cc1 | > 100 µM | 
12 | Clc1cc(-c2ccccc2)nc(Nc2nc3ccccc3[nH]2)n1 | > 100 µM | 
13 | O=P(O)(O)c1ccc(-c2ccc(I)cc2)cc1 | > 100 µM | 
14 | COc1cccc(C=O)c1C(=O)c1cc(O)ccc1O | > 100 µM | 
15 | C/C(CCn1[nH]c(=O)ccc1=O)=N\NC(=O)C(N)=O | > 100 µM | 
16 | O=C1CC(/C=C/c2ccco2)=C(O)C1=O | 25.2 µM | 
17 | CC(C)(C)N/N=C(\C(=O)Nc1cccc(Cl)c1)C1C(=O)Nc2ccccc2S1=O (stereo unspecified) | > 100 µM | 
18 | COC(=O)C(Cc1ccccc1)NC(=O)C(CS)NC(=O)OC(C)(C)C (stereo not drawn) (Boc-Cys-Phe-OMe; configuration not given here) | > 100 µM | 
19 | COc1ccc2c(c1)[n+]([O-])c(-c1cccc(Cl)c1)c(N)[n+]2[O-] | > 100 µM | 
20 | C/C(CCC(=O)O)=N/Nc1ccc([N+](=O)[O-])cc1 | > 100 µM | > 100 µM
21 | C/C=C1/CN2CCC34c5ccccc5N(C)C23C2CC1C4(C(=O)OC)C(OC(C)=O)O2 (stereo unspecified) | > 100 µM | 
22 | COc1cccc2c1OC1Sc3ccccc3-c3nn(-c4ccccc4)c-2c31 (stereo unspecified) | > 100 µM | 
23 | CN1CC=C(c2cc(NC(=O)Nc3ccc(Oc4ccnc(NC(=O)C5CC5)c4)c(F)c3)cc(C(F)(F)F)c2)CC1 | 2.72 µM | 0.259 µM

Row | SMILES | TGI | GI50
24 | O=C(CCCn1c2c(sc3ccccc32)c(=O)n2nnc(-c3ccccc3)c12)NCCc1cnc[nH]1 | 7.87 µM | 2.21 µM
25 | O=C(c1ccccc1)N1CCN(C(=S)NC2CCCCC2)C1=S | 51.9 µM | 
26 | OCC1OC2c3ccccc3COC2C1OCc1ccccc1 (stereo unspecified) | > 100 µM | 
27 | COc1ccc2nc3c([N+](=O)[O-])ccc(NCCN(C)C)c3c(N)c2c1 | 2.71 µM | 
28 | C[C@@H](N)COc1ccc(-c2cnc3ccc(N[C@H](C)c4cccc(F)c4)nn23)cc1 | 14.1 µM | 3.39 µM
29 | COc1ccccc1NC(=S)N=Nc1c(O)[nH]c2ccccc12 | > 100 µM | 
30 | O=C1/C(=C/c2ccc([N+](=O)[O-])s2)Oc2cc(Cl)ccc21 | > 100 µM | 13.1 µM
31 | O=C(NC(=Nc1ccccc1)SCSC(=Nc1ccccc1)NC(=O)c1ccco1)c1ccco1 | > 100 µM | 
32 | ClCCCSSCCCCl | > 100 µM | 
33 | O=C1c2cc(I)ccc2N2CCN=C2N1Cc1ccccc1 | > 100 µM | 
34 | C/C(=N\Nc1nc2cc(Cl)ccc2s1)c1ccccn1 | 58.4 µM | 
35 | O=c1[nH]c(=O)c2ncn(-c3ccc([N+](=O)[O-])cn3)c2[nH]1 | > 100 µM | 
36 | Cc1ncc([N+](=O)[O-])n1CC[N+](C)([O-])CCCCn1ccnc1[N+](=O)[O-] (stereo unspecified) | > 100 µM | 
37 | CCn1c2nc(=O)n(CCCCCCCCSC(c3ccccc3)(c3ccccc3)c3ccccc3)c(=O)c-2nc2ccccc21 | > 100 µM | 
38 | COC(=O)[C@H]1COC(=S)N1C(=O)[C@@H](C)[C@H](O)C(C)C | > 100 µM | 
39 | CC(C)OP(=S)(NC(=S)c1ccccc1)OC(C)C | > 100 µM | 
40 | Fc1cc(F)c(F)c(S)c1F | > 100 µM | 
41 | COc1ccc2c(c1)N(Cc1ccc(Cl)cc1)CCC2N1CCCC1=O (stereo unspecified) | > 100 µM | 4.05 µM
42 | Cc1c(Cc2ccccc2)n(C(C)OCCN(OC(=O)Oc2ccccc2)C(=O)Oc2ccccc2)c(=O)[nH]c1=O (stereo unspecified) | 64.3 µM | 
43 | Cc1ccc(-c2nc3nc(-c4ccc(F)cc4)nc(N4CCNCC4)c3o2)cc1 | 4.6 µM | 1.99 µM
44 | CCCCCCSc1nc(N)nc2nc[nH]c12 | > 100 µM | 
45 | Cn1cc(C2=C(c3c4n(c5ccccc35)CCNC4)C(=O)NC2=O)c2ccccc21 | > 25 µM | 12.2 µM
46 | COC1=CC(c2ccc[nH]2)=N/C1=C\c1[nH]c(C)c(C(=O)CCC(=O)Oc2ccc3c(c2)CCC2C3CC[C@]3(C)[C@@H](O)CC[C@@H]23)c1C (stereo partly specified) | > 100 µM | 6.17 µM

Row | SMILES | TGI | GI50
47 | O=[N+]([O-])c1cc(-c2nc(=S)[nH][nH]2)ccc1O | > 100 µM | 
48 | COC(=O)CN(CC(=O)NCCCBr)C1CCCCC1N(CC(=O)OC)CC(=O)OC (stereo unspecified) | > 100 µM | 
49 | COC(=O)Nc1nc2ccc(S(=O)(=O)Nc3ccccn3)cc2[nH]1 | > 100 µM | 
50 | CC(C)NC(=O)OCc1c(COC(=O)NC(C)C)c(-c2ccc[n+](COC(=O)Cc3ccccc3)c2)n2c1CCC2 | > 100 µM | 
51 | CN(C)Cc1c(O)ccc2c1c1c(n2C)C(=O)c2ccccc2C1=O | 49.4 µM | 
52 | CC(=O)OCC1OC(n2cnc3nc(Br)[nH]c(=O)c32)C(OC(C)=O)C1OC(C)=O (stereo unspecified) | > 100 µM | 
53 | CC#C[C@]1(O)CCC2[C@@H]3CCC4=CC(=O)CCC4=C3[C@@H](c3ccc(N(C)C)cc3)C[C@@]21C (stereo partly specified) | 67.2 µM | 
54 | CN1CCN(Cc2ccc(NC(=O)c3cncc(C#Cc4c(N)ncc5ccc(C#N)cc45)c3)cc2C(F)(F)F)CC1 | 2.58 µM | 1.09 µM
55 | Cn1c(-c2ccc[se]2)ccc1-c1ccc(C=O)[se]1 | > 100 µM | 
56 | COc1cccc2c1NC(=O)Cc1c-2[nH]c2ccccc12 | > 100 µM | 
57 | Cn1cnc(N2CCCC2)c(C#N)c1=S | > 100 µM | 
58 | N#CC1C[C@@H]2CC3(CCC2CN1C(=O)c1ccccc1)OCCO3 (stereo partly specified) | > 100 µM | 
59 | Cc1nn(C(=O)c2ccccc2O)c2c1C(c1ccc(O)cc1O)SC(N)=N2 (stereo unspecified) | > 10 µM | 
60 | Cc1cc(=O)oc2cc(OCCCOc3ccc4c(C)cc(=O)oc4c3)ccc12 | > 100 µM | 
61 | Cc1ccc([Se](=C(C(=O)c2ccccc2)C(=O)c2ccccc2)c2ccc(C)cc2)cc1 | 75.1 µM | 
62 | CC(C)(C)COC(=O)C(C)(C)NC(=O)C(CC(=O)OCc1ccccc1)NC(=O)OCc1ccccc1 (stereo unspecified) | > 100 µM | 
63 | CCCCCCCCCCCCCC[n+]1ccccc1 | 4.62 µM | 1.93 µM
64 | CS(=O)(=O)CCNCc1ccc(-c2ccc3ncnc(Nc4ccc(OCc5cccc(F)c5)c(Cl)c4)c3c2)o1 | > 10 µM and > 100 µM and 14 µM | 0.379 µM and 0.187 µM and 0.164 µM
65 | CC1=C/C=C/C(=O)O[C@@H]([C@H](C)[C@H](O)[C@@H](C)NC(=O)C(C)C)[C@H](C)/C=C/C(C)=C/[C@H]2C=CCC[C@@]2(C)\C=C\1 | > 42.3 µM | 1.03 µM and 4.72 µM
66 | C[C@@]1(CCCCCCCCCCc2ccccc2)C[C@@]2(C)OC(=O)C[C@H]2OO1 | 29.2 µM | 
67 | CCN1c2ccccc2NC(=S)c2c1n[nH]c2-c1ccccc1 | > 100 µM | 
68 | CN(C)C(=O)Oc1c(Br)cc(Br)cc1C(=O)OCc1ccccc1 | > 100 µM | 
69 | COC(C/C(=C/CO[Si](C(C)C)(C(C)C)C(C)C)C(=O)N(C(=O)OC(C)(C)C)c1ccccc1I)OC | > 100 µM | 

Row | SMILES | TGI | GI50
70 | CCC12CCCN(Cc3ccccc3)C1c1c(n(C)c3ccccc13)C(CO)C2 (stereo unspecified) | 140 µM | 
71 | CCc1ccccc1NC(=O)C(=O)C(C#N)c1ccccc1Cl (stereo unspecified) | > 100 µM | 
72 | Cc1ccccc1NC(=O)Cc1csc(N/N=C2\NC(=O)/C(=C/c3cccc([N+](=O)[O-])c3)S2)n1 | > 100 µM | 
73 | NC1N=Nc2ccccc21 (stereo unspecified) | > 100 µM | 
74 | CN1CCN(C(=O)[C@@]2(C)CC[C@]3(C)CC[C@]4(C)C(=CC[C@@H]5[C@@]6(C)CCC(=O)NC(C)(C)[C@@H]6CC[C@]54C)[C@@H]3C2)CC1 | 3.58 µM | 1.76 µM
75 | O=C(Cc1nc2ccc(C(=O)c3ccccc3)cc2[nH]c1=O)C(=O)Nc1nc2ccccc2[nH]1 | > 100 µM | 
76 | OCc1ccc(-c2csc(-c3ccc(CO)o3)c2)o1 | > 100 µM | 19.6 µM
77 | O=C(NC(=S)Nc1ccc([N+](=O)[O-])cc1)c1ccc2c(c1)Sc1ccccc1O2 | > 100 µM | 
78 | Nc1nc(Cl)cc(OCC2(CO)CCCC2)n1 | > 100 µM | 
79 | NC(=O)c1cccc2c(N[C@H](CN3CCC3)c3ccc(Cl)c(C(F)(F)F)c3)ncnc12 | 18 µM | 2.6 µM
80 | C[C@H](c1ccc(F)cc1CCCC(=O)O)N(c1cc(F)ccc1F)S(=O)(=O)c1ccc(Cl)cc1 | > 100 µM | 37.8 µM
81 | O=C(CCC(=O)Nc1ccc(Cl)c(Cl)c1)CC(=O)c1ccc2ccccc2c1 | > 100 µM | 
82 | COC(=O)C12CCC(C)(C)CC1C1=CCC3C4(C)CC(O)C(O)C(C)(C(=O)OC)C4CCC3(C)C1(CO)CC2 (stereo unspecified) | 32.3 µM | 
83 | CCOC(=O)c1c(NS(=O)(=O)c2ccc(C)cc2)sc2c1CCCC2 | > 100 µM | 
84 | COc1ccc(/C=C/C(=O)c2c(O)ccc3c(C)c(C(=O)O)oc23)cc1 | > 100 µM | 45.6 µM
85 | COC1=C[C@]2(CCC(=O)O2)[C@@H]2Cc3ccccc3[C@H](O)[C@@H]2C1=O | > 100 µM | 
86 | COc1ccc(-c2oc3ccccc3c(=O)c2O)cc1OC | > 100 µM | 
87 | O=Cc1cccc2ccc3ccccc3c12 | 56.1 µM | 
88 | COc1cc2c(NCCCCCO)ncnc2c(OC)c1OC | > 100 µM | 
89 | CC1=NN(C(=O)Cc2ccccc2)C(=O)/C1=C\c1ccc([N+](=O)[O-])cc1 | > 100 µM | 
90 | O[C@@H]1C[C@H](Cl)c2c(Cl)sc(Cl)c21 | > 100 µM | 
91 | CS(=O)(=O)N1CCC(n2c(=O)c(Oc3ccc(F)cc3F)cc3cnc(NC4CCOCC4)nc32)CC1 | > 25 µM | > 25 µM
